Test results published in the supplement of paper PMC8728848.
The other results are listed elsewhere or left out.

Legend:
Assay in all cases: glycan array binding signal (z-score within array); higher = stronger binding
Conditions in all cases: glycan notation: IUPAC condensed, linker removed
Gal(b1-3)GlcNAc6S = target: Gal(b1-3)GlcNAc6S
Method in brief: (§1)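 From the Consortium for Functional Glycomics database, 3228 arrays were curated, keeping only those whose protein sequence was available. Binding is given as a within-array Z-score averaged across arrays sharing a protein sequence and across linkers. Negative Z-scores can be read as non-binding.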

[1] = target: Gal(b1-3)[Fuc(a1-4)]GlcNAc
Method in brief: as §1

[2] = target: Gal(b1-3)[Fuc(a1-4)]GlcNAc(b1-2)Man(a1-3)[Gal(b1-3)[Fuc(a1-4)]GlcNAc(b1-2)Man(a1-6)]Man(b1-4)GlcNAc(b1-4)[Fuc(a1-6)]GlcNAc
Method in brief: as §1

[3] = target: Gal(b1-3)[Fuc(a1-4)]GlcNAc(b1-3)Gal(b1-3)[Fuc(a1-4)]GlcNAc
Method in brief: as §1

[4] = target: Gal(b1-3)[Fuc(a1-4)]GlcNAc(b1-3)Gal(b1-4)GlcNAc
Method in brief: as §1

[5] = target: Gal(b1-3)[Fuc(a1-4)]GlcNAc(b1-3)Gal(b1-4)[Fuc(a1-3)]GlcNAc
Method in brief: as §1

[6] = target: Gal(b1-3)[Fuc(a1-4)]GlcNAc(b1-6)GalNAc
Method in brief: as §1

[7] = target: Gal(b1-3)[GlcNAc(b1-6)]GalNAc
Method in brief: as §1

[8] = target: Gal(b1-3)[Neu5Ac(a2-6)]GalNAc
Method in brief: as §1

[9] = target: Gal(b1-3)[Neu5Ac(a2-6)]GlcNAc(b1-6)Gal(b1-4)Glc
Method in brief: as §1

[10] = target: Gal(b1-3)[Neu5Ac(b2-6)]GalNAc
Method in brief: as §1

Gal(b1-4)Gal = target: Gal(b1-4)Gal
Method in brief: as §1

[11] = target: Gal(b1-4)GalNAc(a1-3)[Fuc(a1-2)]Gal(b1-4)GlcNAc
Method in brief: as §1

[12] = target: Gal(b1-4)GalNAc(b1-3)[Fuc(a1-2)]Gal(b1-4)GlcNAc
Method in brief: as §1

Gal(b1-4)Glc = target: Gal(b1-4)Glc
Method in brief: as §1

Gal(b1-4)Glc6S = target: Gal(b1-4)Glc6S
Method in brief: as §1

Gal(b1-4)GlcNAc = target: Gal(b1-4)GlcNAc
Method in brief: as §1

[13] = target: Gal(b1-4)GlcNAc(a1-6)Gal(b1-4)GlcNAc
Method in brief: as §1

Gal(b1-4)GlcNAc(b1-2)Man = target: Gal(b1-4)GlcNAc(b1-2)Man
Method in brief: as §1

[14] = target: Gal(b1-4)GlcNAc(b1-2)Man(a1-3)Man(b1-4)GlcNAc(b1-4)GlcNAc
Method in brief: as §1

[15] = target: Gal(b1-4)GlcNAc(b1-2)Man(a1-3)[Gal(b1-4)GlcNAc(b1-2)Man(a1-6)]Man(b1-4)GlcNAc(b1-4)GlcNAc
Method in brief: as §1

[16] = target: Gal(b1-4)GlcNAc(b1-2)Man(a1-3)[Gal(b1-4)GlcNAc(b1-2)Man(a1-6)]Man(b1-4)GlcNAc(b1-4)[Fuc(a1-6)]GlcNAc
Method in brief: as §1

[17] = target: Gal(b1-4)GlcNAc(b1-2)Man(a1-3)[Gal(b1-4)GlcNAc(b1-2)][GlcNAc(b1-4)]Man(b1-4)GlcNAc(b1-4)GlcNAc
Method in brief: as §1

[18] = target: Gal(b1-4)GlcNAc(b1-2)Man(a1-3)[GlcNAc(b1-2)Man(a1-6)]Man(b1-4)GlcNAc(b1-4)GlcNAc
Method in brief: as §1

[19] = target: Gal(b1-4)GlcNAc(b1-2)Man(a1-3)[Man(a1-6)]Man(b1-4)GlcNAc(b1-4)GlcNAc
Method in brief: as §1

[20] = target: Gal(b1-4)GlcNAc(b1-2)Man(a1-6)Man(b1-4)GlcNAc(b1-4)GlcNAc
Method in brief: as §1

[21] = target: Gal(b1-4)GlcNAc(b1-2)Man(a1-6)[GlcNAc(b1-2)Man(a1-3)]Man(b1-4)GlcNAc(b1-4)GlcNAc
Method in brief: as §1

[22] = target: Gal(b1-4)GlcNAc(b1-2)Man(a1-6)[Man(a1-3)]Man(b1-4)GlcNAc(b1-4)GlcNAc
Method in brief: as §1

[23] = target: Gal(b1-4)GlcNAc(b1-2)[Gal(b1-4)GlcNAc(b1-4)]Man(a1-3)[Gal(b1-4)GlcNAc(b1-2)Man(a1-6)]Man(b1-4)GlcNAc(b1-4)GlcNAc
Method in brief: as §1

[24] = target: Gal(b1-4)GlcNAc(b1-2)[Gal(b1-4)GlcNAc(b1-4)]Man(a1-3)[Gal(b1-4)GlcNAc(b1-2)[Gal(b1-4)GlcNAc(b1-6)]Man(a1-6)]Man(b1-4)GlcNAc(b1-4)GlcNAc
Method in brief: as §1

B1: PitA (Streptococcus oralis), G3F8D8 (protein)
chain: MNIRFDFKKVQIIARRLVTLLAILFLCAPISLLNADSTTEPQTTLHKTITPISGQDDKYELSLDITSKLGTETQTDPLDVVLVADLSGSMQNQDVQSFDGRTISRIDALKNTLRGTNGRKGLIDTILSNSNNRLSMVGFGGKIDNKKVDQYWDGNKWRLFRPYWPYERMTKYYDGVSPWDDANTILGWSNNARAAKTAVYNMSIAGGNSIGTESGIGTGTNIGAGLTLANQLMGSARSNAKKVVILLSDGFANMVYDANGYTIYNYNNEDPNIETAPQWFWDRLNNNLNSLSYSLAPTLDGFYSIKFRYSNNVDSITSLQYYMRQHNASIPNEIFSANDEDQLRDSFKDITDKILPLGIHHVSIKDVLSKYVQLLPNGSSEFRVVKEKDGSSEILIENQVTFDTKTTSEGLVEVTAKFSPNYSLEDGARYVLKFTVTSSQEALDAIAGDKKLEAGDAEGSDVNKLYSNKGASVTYSYGIGNSQTKTKEYSDNPTFKPSDPLTVPVEVEWQGVTGARTVITADQPSNVELKLVQKNKNGGSDNQDYRKTNVNVSKNVSNETRNFEKVAKGYQYDLIAPDVPAFTKEIKNVGTESKPSFKVIYKQLPSLTIKKVLEAENNLNKEFRIKVKLTSPDSKPLNGTFGEITVVNGEAEIRVEKRKRWEGILSYLPRGTHYKVEEEAASTNGYHVTYENQEGDLNKDETSIVTNHKLPSLSVTKKVTGVFANLLKSFKITINIRDAQNSPLNGTYTATVNNKRTPLQFTNGRASIDLNKDQTIKIYGLPLDSHYTVEEESNSSRGYQVSYENQEGKLDGDKSATVTNNKNSVPETGVDFLSSTLMLGIILPLGGIFFTILLGYLVVHRRK
- glycan array binding signal (z-score) (Gal(b1-3)GlcNAc6S): 0.209
- glycan array binding signal (z-score) [1]: 0.644
- glycan array binding signal (z-score) [2]: 1.74
- glycan array binding signal (z-score) [3]: 0.203
- glycan array binding signal (z-score) [4]: -0.492
- glycan array binding signal (z-score) [5]: 0.082
- glycan array binding signal (z-score) [6]: 0.46
- glycan array binding signal (z-score) [7]: -0.437
- glycan array binding signal (z-score) [8]: -0.685
- glycan array binding signal (z-score) [9]: -0.417
- glycan array binding signal (z-score) [10]: -0.63
- glycan array binding signal (z-score) (Gal(b1-4)Gal): -0.023
- glycan array binding signal (z-score) [11]: -0.722
- glycan array binding signal (z-score) [12]: -0.376
- glycan array binding signal (z-score) (Gal(b1-4)Glc): -0.397
- glycan array binding signal (z-score) (Gal(b1-4)Glc6S): 0.214
- glycan array binding signal (z-score) (Gal(b1-4)GlcNAc): -0.34
- glycan array binding signal (z-score) [13]: -0.028
- glycan array binding signal (z-score) (Gal(b1-4)GlcNAc(b1-2)Man): -0.212
- glycan array binding signal (z-score) [14]: -0.431
- glycan array binding signal (z-score) [15]: -0.186
- glycan array binding signal (z-score) [16]: 0.386
- glycan array binding signal (z-score) [17]: 0.242
- glycan array binding signal (z-score) [18]: -0.324
- glycan array binding signal (z-score) [19]: -0.248
- glycan array binding signal (z-score) [20]: -0.248
- glycan array binding signal (z-score) [21]: -0.058
- glycan array binding signal (z-score) [22]: 0.021
- glycan array binding signal (z-score) [23]: -0.211
- glycan array binding signal (z-score) [24]: -0.584
